In the supplement of paper PMC7826260:
The other results are listed elsewhere or left out. Cleavage of a single-stranded DNA pool by Rep nickase domains was read by sequencing for 1 h at 37 °C with 3 µM enzyme; only the middle of the 90-letter strands is printed. Uncut reads are compared with the no-enzyme pool on a log2 scale; more negative means more cut, near 0 not cut, and no call is made. Because reads are shares of a total, they shift together; uncut strands gain when others are lost, and binding without cutting may add a little.

Key:
Assay in all cases: uncleaved DNA left, log2 of reads against the no-enzyme library (log2 ratio); higher = less cleavage (more negative = more Rep cleavage of the k-mer); sequences stand for … in CTCGTCCG…ACCGGAGA
[1] = tested on: T1, Rep nickase domain of Muscovy duck circovirus
T1 sequence (residues 1-111 of Rep, tag left off): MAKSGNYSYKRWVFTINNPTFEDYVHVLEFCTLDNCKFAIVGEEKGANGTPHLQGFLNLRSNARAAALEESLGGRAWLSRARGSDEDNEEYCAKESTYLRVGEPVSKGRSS
Description: (§1)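 A pool of 90-nt single-stranded DNAs with seven random bases just before the constant AC of the nick site (name = the seven bases) was cut by 3 µM recombinant His6-SUMO-tagged Rep nickase domain (300 nM DNA, 50 mM HEPES pH 8.0, 50 mM NaCl, 1 mM MnCl2, 1 h, 37 °C, three replicates). Uncut DNA was amplified and sequenced.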

[2] = tested on: T2, Rep nickase domain of banana bunchy top virus
T2 sequence (residues 1-94 of Rep, tag left off): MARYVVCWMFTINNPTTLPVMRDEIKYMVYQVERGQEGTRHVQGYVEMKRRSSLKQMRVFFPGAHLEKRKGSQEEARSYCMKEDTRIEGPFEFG
Description: as §1

[3] = tested on: T3, Rep nickase domain of cabbage leaf curl virus
T3 sequence (residues 1-116 of Rep, tag left off): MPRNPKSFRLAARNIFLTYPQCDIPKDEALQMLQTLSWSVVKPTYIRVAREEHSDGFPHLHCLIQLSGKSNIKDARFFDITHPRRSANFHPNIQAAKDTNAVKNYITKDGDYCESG
Description: as §1

[4] = tested on: T4, Rep nickase domain of chickpea chlorotic dwarf virus
T4 sequence (residues 1-124 of Rep, tag left off): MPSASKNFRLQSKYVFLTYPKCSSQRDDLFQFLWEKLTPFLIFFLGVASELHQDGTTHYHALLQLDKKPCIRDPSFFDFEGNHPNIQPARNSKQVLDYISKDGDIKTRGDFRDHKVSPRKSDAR
Description: as §1

[5] = tested on: T5, Rep nickase domain of faba bean necrotic yellows virus
T5 sequence (residues 1-98 of Rep, tag left off): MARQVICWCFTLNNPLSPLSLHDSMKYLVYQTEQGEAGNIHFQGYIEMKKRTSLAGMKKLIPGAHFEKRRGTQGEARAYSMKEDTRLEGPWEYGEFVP
Description: as §1

[6] = tested on: T6, Rep nickase domain of maize striate mosaic virus
T6 sequence (residues 1-117 of Rep, tag left off): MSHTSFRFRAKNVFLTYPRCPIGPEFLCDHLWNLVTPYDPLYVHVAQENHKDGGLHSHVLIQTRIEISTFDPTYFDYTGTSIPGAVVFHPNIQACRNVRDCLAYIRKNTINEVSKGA
Description: as §1

[7] = tested on: T7, Rep nickase domain of porcine circovirus 2
T7 sequence (residues 2-116 of Rep, tag left off): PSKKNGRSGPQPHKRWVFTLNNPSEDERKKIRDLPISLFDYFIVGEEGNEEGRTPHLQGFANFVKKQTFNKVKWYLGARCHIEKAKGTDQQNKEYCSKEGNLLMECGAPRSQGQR
Description: as §1

[8] = tested on: T8, Rep nickase domain of tomato yellow leaf curl virus
T8 sequence (residues 1-136 of Rep, tag left off): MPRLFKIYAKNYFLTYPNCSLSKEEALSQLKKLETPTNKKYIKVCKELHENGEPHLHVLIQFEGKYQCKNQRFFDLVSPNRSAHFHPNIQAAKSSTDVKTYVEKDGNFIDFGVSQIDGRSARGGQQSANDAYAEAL
Description: as §1

[9] = tested on: T9, Rep nickase domain of wheat dwarf virus
T9 sequence (residues 1-137 of Rep, tag left off): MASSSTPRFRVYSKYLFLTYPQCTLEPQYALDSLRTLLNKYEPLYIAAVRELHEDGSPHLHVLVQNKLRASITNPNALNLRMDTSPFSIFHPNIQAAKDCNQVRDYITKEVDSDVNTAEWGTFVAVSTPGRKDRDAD
Description: as §1

Sequence	uncleaved DNA left (log2) [1]	uncleaved DNA left (log2) [2]	uncleaved DNA left (log2) [3]	uncleaved DNA left (log2) [4]	uncleaved DNA left (log2) [5]	uncleaved DNA left (log2) [6]	uncleaved DNA left (log2) [7]	uncleaved DNA left (log2) [8]	uncleaved DNA left (log2) [9]
CCTGACG	-0.131	-0.174	-0.817	-0.646	-0.138	-1.08	0.0305	-0.124	-0.113
TAGCTTT	0.14	-0.349	-2.05	-2.68	-0.0946	-0.552	-3.85	0.148	-0.309
TGGCGTT	0.0587	-0.046	-0.064	-0.216	-0.0569	-0.353	-0.0315	0.0393	0.123
GTAGCCT	-0.000636	0.0644	0.317	0.667	-0.0356	1.63	-0.011	-0.0169	0.108
ATTGAGA	0.0878	-0.023	-0.435	-0.48	0.0678	-1.25	0.17	0.0622	0.0994
TTTGCGT	-0.024	-0.166	-0.789	0.562	-0.0279	-0.532	0.041	-0.0364	-0.351
GCAAGTT	0.17	0.0836	-0.141	-0.975	0.0755	0.0587	-0.0657	0.00489	0.0545
ATGACGT	-0.063	0.0393	-0.0293	0.0421	-0.0926	-0.299	-0.00516	-0.0483	0.0336
ATTGGGC	0.00197	-0.104	-0.538	-0.696	-0.124	-0.929	0.046	-0.0928	-0.166
TAACAAA	-0.039	0.0667	-0.356	-2.37	0.065	-0.611	0.0375	0.0152	-0.00221
CTGACTA	0.0885	0.0504	-0.102	0.0224	0.0527	0.14	-0.016	0.0722	0.0918
TAGCTCC	0.0798	-0.00878	0.0775	-0.0312	0.029	1.06	-0.0868	0.0654	0.0421
CGAGATG	0.0271	0.132	0.188	0.821	-0.00327	1.21	0.257	0.0103	0.0666
GATGACC	0.0127	0.131	0.122	0.794	0.00532	1.06	0.139	0.0719	0.191
GAGCGTC	0.0816	0.0929	0.0539	0.348	0.0405	0.581	-0.048	-0.0171	0.08
TCCCGAT	0.0657	-0.0129	0.162	0.245	0.00844	0.533	0.0059	-0.0572	0.0503
ATGTGTG	-0.0848	-0.128	-0.78	-0.244	0.0164	-0.899	0.119	0.0448	-0.0917
CCCATCC	0.0428	-0.0603	0.0939	-0.14	0.0816	-0.668	0.0479	-0.109	0.0304
TGCTGTT	-2.47	-0.206	-0.36	-1.25	-0.0285	0.457	-3.03	-0.0265	-0.295
ACTGCCA	0.00972	0.00779	-0.065	-0.248	0.0126	-0.188	-0.0635	0.0397	-0.0137
ACGCCTG	-0.059	0.136	-0.0243	0.301	0.0648	0.313	0.0945	0.0252	0.0889
TAAGTAT	0.114	-0.077	-2.92	-2.33	0.0958	0.909	0.0432	-0.149	-1.15
TCTCCAA	-0.129	-0.0988	0.0293	0.0389	-0.0587	0.289	0.0822	0.0125	-0.0527
CATTTGT	-3.08	-3.23	-0.732	-1.49	-0.0347	-1.12	-3.47	0.023	-0.192
TCCACTA	0.0194	0.0396	0.034	-1.25	0.00377	-0.357	-0.0393	0.108	0.0541
GCTTACG	-0.0429	-0.00345	-0.784	-0.662	-0.0646	-0.961	0.117	-0.0775	-0.188
CAATTCA	-0.358	0.051	-1.83	-2.58	-0.0821	-1.27	-1.12	-0.0147	-0.467
TATTAGC	0.109	-0.000729	-0.46	-0.81	0.0188	-1.15	0.13	0.176	0.0884
